This is one part of the list.

For the experiment, the target named is T1, OsWOX13 (Oryza sativa, UniProt Q5QMM3 1-267).
T1 sequence: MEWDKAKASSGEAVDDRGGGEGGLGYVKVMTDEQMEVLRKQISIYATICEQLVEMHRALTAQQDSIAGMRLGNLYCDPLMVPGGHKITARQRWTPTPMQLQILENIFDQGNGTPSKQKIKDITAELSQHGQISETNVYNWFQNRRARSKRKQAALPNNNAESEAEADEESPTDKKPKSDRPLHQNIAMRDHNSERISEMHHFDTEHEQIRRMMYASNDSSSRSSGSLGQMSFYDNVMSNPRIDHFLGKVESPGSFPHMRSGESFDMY
As to the kind of experiment: protein-binding microarray (RPBM); PBS, 2% BSA, 51.3 ng/ul salmon testes DNA, 50 uM zinc acetate, 200 nM TF, 25 C, 1 h; high values mean tight binding. The note with it: protein: recombinant; tags: N-terminal polyhistidine and DsRed monomer fusion (pET32a); label: CyDye5-dUTP incorporated in the synthesized complementary strand; 3' TTTTT single-stranded linker to array surface; dsDNA, one strand shown. The essentials:
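Binding signal is defined as the fluorescence intensity of each feature in arbitrary units, read on an Axon 4000B scanner. Transcription factors with N-terminal polyhistidine and DsRed fusions came from E. coli BL21-CodonPlus and were purified on Ni–NTA. They were incubated at 200 nM for 1 h at 25 °C on a custom Agilent array that had been made double-stranded with Cy5-dUTP, with 50 µM zinc acetate present, and the array was washed.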
As to “TGCTAGATTAAATTTTAAAACTATATTGTTCCTTTCATATCGGAGTCACCTAGTGCAG”, the binding signal was 12400 fluorescence intensity (a.u.).

For “TGTAATCTTTGATTAGTACTAATCTGATGATCCGAGATTCCGGAGTCACCTAGTGCAG”, the binding signal is 25700 fluorescence intensity (a.u.).

As to “GTGATGACGAGGATACCGAACTTGACGGTAGCCTACTCGCCGGAGTCACCTAGTGCAG”, the binding signal is 4530 fluorescence intensity (a.u.).

Take “ACTGACAGTTTCTGTTCGTGCAACTGATGGAATTCAGAGGCGGAGTCACCTAGTGCAG”: the binding signal is 8430 fluorescence intensity (a.u.).

Turning to “TTTGTGATGGTTGATTTGGTGTTAGACTTTTCCTCATTAGCGGAGTCACCTAGTGCAG”, the binding signal is 7240 fluorescence intensity (a.u.).

“AGTAATTTGTGAATTAAACTTTTATATACGTGTTCTTAGCCGGAGTCACCTAGTGCAG”: the binding signal was 42200 fluorescence intensity (a.u.).

Turning to “GAGGAGTAACGACATTAATTACCGTTGCTCTTACCGGATCCGGAGTCACCTAGTGCAG”, the binding signal is 4260 fluorescence intensity (a.u.).

With “GCAATTCTCTAAGTTAATTAATTAGGAAGTCACAGAATACCGGAGTCACCTAGTGCAG”, the binding signal was 19500 fluorescence intensity (a.u.).

With “GTAGATTTGAATAGTACCTAGGGTTTGCTGGTGAGTTGAGCGGAGTCACCTAGTGCAG”, the binding signal was 6360 fluorescence intensity (a.u.).

As to “TGATAACTTCAATTTTAAATATGCAGTTTTATTTAACCTTCGGAGTCACCTAGTGCAG”, the binding signal is 5930 fluorescence intensity (a.u.).

As to “AGTAATTTAACTATTGAGCAGTCAGTCTCCTCCAAAGCATCGGAGTCACCTAGTGCAG”, the binding signal was 26400 fluorescence intensity (a.u.).

“CTTAACTGATACAACATTAAGTATGAAATGAAGAACGATACGGAGTCACCTAGTGCAG”: the binding signal was 15300 fluorescence intensity (a.u.).

As to “TTATATCGTTTTAATTTCAATTAAACTTTCAATTTTAGTGCGGAGTCACCTAGTGCAG”, the binding signal is 8150 fluorescence intensity (a.u.).

“ATATAATGGGCACTATGATTTGCTCTAAATATTGGTCATTCGGAGTCACCTAGTGCAG”: the binding signal is 28800 fluorescence intensity (a.u.).

Consider “TCAGCACACACGCTTTGCTGTGATTGGTTCTGACACGACACGGAGTCACCTAGTGCAG”, for which the binding signal is 4040 fluorescence intensity (a.u.).

Take “AACAAATCATACGGTTTCAGATGACCATATATGTAACCATCGGAGTCACCTAGTGCAG”: the binding signal was 3500 fluorescence intensity (a.u.).

As to “ATAACTGATTAGTGGTTGTTTAGTAGCTGTTGGGGTTTACCGGAGTCACCTAGTGCAG”, the binding signal is 38200 fluorescence intensity (a.u.).

Take “TAACGTAATCACCCGACTGATTTATAAGGGTATGAAATGGCGGAGTCACCTAGTGCAG”: the binding signal was 23900 fluorescence intensity (a.u.).

Regarding “TTCCTCTTCCGATCTCCAATCAACGATACCACACACAATCCGGAGTCACCTAGTGCAG”, the binding signal is 6150 fluorescence intensity (a.u.).

Consider “TATAAAATAGATTTAGGAAACCGATACCGTGTTGGTTAATCGGAGTCACCTAGTGCAG”, for which the binding signal was 5260 fluorescence intensity (a.u.).

For the sequence “TCTAAATCTTAATTTGAATATTCAATTTTACCCATGATAGCGGAGTCACCTAGTGCAG”, the binding signal was 16900 fluorescence intensity (a.u.).

In the case of “TAGAGGGTTGTGATTGGTTAGTAAGAGAATGTTGGTGGTGCGGAGTCACCTAGTGCAG”, the binding signal is 14000 fluorescence intensity (a.u.).

As for “AATTTGATATAGTAATTTCTATCTACTTATGTCACCCACTCGGAGTCACCTAGTGCAG”, the binding signal is 5870 fluorescence intensity (a.u.).

On to “TTGTTAATTTCACAGGTTCATGCACTCAAGATTGCGGACACGGAGTCACCTAGTGCAG”, for which the binding signal was 6380 fluorescence intensity (a.u.).

As to “CAAAATATTTTAGATTACTCGTCTCATCAACCACCGCAATCGGAGTCACCTAGTGCAG”, the binding signal was 3910 fluorescence intensity (a.u.).

Consider “CTGCTTAATTAGCTGAACCTTGGATTAACCATTATTTCGACGGAGTCACCTAGTGCAG”, for which the binding signal was 25200 fluorescence intensity (a.u.).

“GTAGGCTGATTAGAGATAAATAATTAAGTGCAGAAGCAAGCGGAGTCACCTAGTGCAG”: the binding signal is 24500 fluorescence intensity (a.u.).

Take “CAATAATTGAGTGATTTGGCCCAGTCCAGGAACTAGTAAGCGGAGTCACCTAGTGCAG”: the binding signal is 56100 fluorescence intensity (a.u.).

“GGCGACAAATTGAGGGACCTAAAGTGAACTTATTCCAGCCCGGAGTCACCTAGTGCAG”: the binding signal was 8920 fluorescence intensity (a.u.).

Regarding “TGAAATTGACTTGCGCTCAACAATATTTGCTTATCGGAAACGGAGTCACCTAGTGCAG”, the binding signal is 29100 fluorescence intensity (a.u.).

Consider “GTAGTAATAAATTGAACTCTGGTTCGATAGTGTTCGATTTCGGAGTCACCTAGTGCAG”, for which the binding signal was 12800 fluorescence intensity (a.u.).

As for “CGCCATAATTGCATCCCCTATTCTTCGCCACCACCATCGCCGGAGTCACCTAGTGCAG”, the binding signal was 25700 fluorescence intensity (a.u.).

As for “CACTTTAAATTTAAATTATTAGAATTGCTATAGATACTGTCGGAGTCACCTAGTGCAG”, the binding signal is 33500 fluorescence intensity (a.u.).

“AGTGAGTGGTGGAGGGTTGTGATTGGATGAGTAGTGAAGGCGGAGTCACCTAGTGCAG”: the binding signal is 4630 fluorescence intensity (a.u.).

“AATTTAAGTAATTATTTATTCTTTTCATATCATTTGATTCCGGAGTCACCTAGTGCAG”: the binding signal is 4230 fluorescence intensity (a.u.).

Take “GTAAATTTGGTATTAAAGCTGTACTTAATAATTTGATCGACGGAGTCACCTAGTGCAG”: the binding signal was 5960 fluorescence intensity (a.u.).

On to “ATCTCAATCAGCAACACAAATGACCCTGACCCACGATCCACGGAGTCACCTAGTGCAG”, for which the binding signal is 20900 fluorescence intensity (a.u.).

For the sequence “AACTGAAAATGATGGGTTCAATTAACATGTTCTCCTCACGCGGAGTCACCTAGTGCAG”, the binding signal is 11700 fluorescence intensity (a.u.).

As to “CAAATTCTATCTATCTAATATCTATAAATTTCATCTGCACCGGAGTCACCTAGTGCAG”, the binding signal is 3320 fluorescence intensity (a.u.).

As to “GGAATTGATCCTGAATTTGCTACTAAGAAATTAATGTAAACGGAGTCACCTAGTGCAG”, the binding signal was 6040 fluorescence intensity (a.u.).

In the case of “CCAAAATTGAAAGTTTGACTAAAATTGAAAGTTTGAAGAACGGAGTCACCTAGTGCAG”, the binding signal was 15700 fluorescence intensity (a.u.).

With “AAATCTAATTAAATAAATTATCTATGTTTAAAAGAGTAATCGGAGTCACCTAGTGCAG”, the binding signal was 11600 fluorescence intensity (a.u.).

The record behind these values is article PMC7819943, “Rice protein-binding microarrays: a tool to detect cis-acting elements near promoter regions in rice”.
